Measured values as given in PubChem BioAssay AID1508649 (National Center for Advancing Translational Sciences (NCATS), 2021).
The whole screen tested about 43,000 compounds, of which about 830 (1.9%) were called active. The inconclusive results got no clear call from the source; some entries with a clear call stand among them for comparison. Rule for the calls: active = clear falling dose curves in both reporters; inconclusive = both reporters move, but less clearly or upward; inactive = either reporter flat; the % is the NLuc reporter signal. Potencies of inconclusive entries are left out as doubtful fits.

experiment: Cell-based coincidence reporter assay to measure PMP22 gene transcription in S16 Pmp22-F2sN cells - Primary screen; settings: S16 Pmp22-F2sN Schwann cells (luciferase reporters placed in the Pmp22 gene), FLuc/NLuc coincidence luminescence, 24 h; measured here: NLuc reporter readout, at 57.5 µM (top of the series)
Summary of the method: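 Luminescent read-out of sequential FLuc and NLuc signals from a reporter embedded in the Pmp22 3' UTR of S16 Schwann cells, taken after 24 h compound exposure at 37C; compounds reducing both signals score as inhibitors of expression.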
Potency is the fitted concentration of half-maximal effect; tags give direction and shape of the fitted curve.

Question: With `CCOC(=O)C1=C(CN2CCN(c3cc(C)ccc3C)CC2)NC(=O)NC1c1ccc(Cl)cc1` (centres undefined) as the compound, how does the Potency read?
Answer: Its Potency is inconclusive [phenotype inactive, single point].

Question: With `CCOc1ccc(C(=O)c2cnc3ccc(Cl)cc3c2S(=O)(=O)c2ccc(C)cc2)cc1` as the compound, how does the Potency read?
Answer: The Potency was active: 14.1 µM.

Question: With `COC(=O)c1cc2occc2n1Cc1cccc(C)c1` as the compound, how does the Potency read?
Answer: The Potency was inconclusive [phenotype inactive, full curve].

Question: For `Cc1nc2sc(C(N)=O)c(N)c2c(-c2ccc(Br)cc2)c1C(=O)Nc1ccc(Cl)cc1`, which Potency is on record?
Answer: Its Potency is inconclusive [phenotype inactive, partial curve].

Question: With `Cc1ccc(C(=O)Nc2onc3c2CCCC3)cc1` as the compound, how does the Potency read?
Answer: Its Potency is “inactive”.

Question: For `Cc1cccc(C)c1NC(=O)Cn1c(=O)n(Cc2ccco2)c(=O)c2ccc(C(=O)NC3CCCC3)cc21`, which Potency is on record?
Answer: The Potency was inconclusive [phenotype inactive, partial curve].

Question: For `COc1ccc(-c2cn3nc(N4CCCC(C(=O)NCc5ccccc5OC)C4)sc3n2)cc1` (centres undefined), which Potency is on record?
Answer: Its Potency is “inactive”.

Question: With `Cc1ccc(-n2ncc3c(Nc4ccccc4C)ncnc32)cc1` as the compound, how does the Potency read?
Answer: The Potency was “inactive”.

Question: With `COc1ccc(Cl)cc1NC(=O)CN(c1cccc(C)c1C)S(=O)(=O)c1ccccc1` as the compound, how does the Potency read?
Answer: Its Potency is inconclusive [phenotype inactive, single point].

Question: With `Cc1ccc(NC(=O)CN2C(=O)CCn3nc(-c4cccn4C)cc32)cc1` as the compound, how does the Potency read?
Answer: Its Potency is inconclusive [phenotype inactive, partial curve, poor fit].

Question: With `CCOc1cc2[nH]c(=O)n(CCCC(=O)N3CCN(c4ccc(OC)cc4)CC3)c(=O)c2cc1OCC` as the compound, how does the Potency read?
Answer: Its Potency is inconclusive [phenotype inactive, single point].

Question: With `CCn1c2ccccc2c2cc(NC(=O)COc3cccc(C)c3)ccc21` as the compound, how does the Potency read?
Answer: Its Potency is inconclusive [phenotype inactive, partial curve].

Question: With `CSc1ccc(CCNC(=O)CN2C(=O)c3cccnc3Oc3ccc(C)cc32)cc1` as the compound, how does the Potency read?
Answer: Its Potency is inconclusive [phenotype inactive, single point].

Question: For `COc1cccc(-c2nc(CS(=O)(=O)CC(=O)Nc3c(C)cc(C)cc3C)c(C)o2)c1`, which Potency is on record?
Answer: Its Potency is inconclusive [phenotype inactive, single point].

Question: With `Cn1cc(C(=O)NCc2ccccc2)c(=O)c2cc(S(=O)(=O)N3CCOCC3)ccc21` as the compound, how does the Potency read?
Answer: Its Potency is “inactive”.

Question: Which Potency does the source give for `Cc1cccc(NC(=O)CS(=O)(=O)c2nc(-c3ccccc3)cn2-c2cccc(Cl)c2)c1C` here?
Answer: The Potency was inconclusive [phenotype inactive, single point].

Question: For `Cc1ccc(S(=O)(=O)c2nc(-c3ccco3)oc2SCc2ccccc2Cl)cc1`, which Potency is on record?
Answer: Its Potency is inconclusive [phenotype inactive, single point].

Question: For `CCn1c(C(=O)Nc2cc(Cl)ccc2C)cc2sc(Cl)cc21`, which Potency is on record?
Answer: Its Potency is “inactive”.

Question: With `COc1cc(NC(=O)c2cnc3c(-c4ccc(F)cc4)c(C)nn3c2C)cc(OC)c1` as the compound, how does the Potency read?
Answer: Its Potency is inconclusive [phenotype inactive, single point].

Question: Which Potency does the source give for `COc1cccc(C2c3c(-c4ccccc4O)n[nH]c3C(=O)N2CCc2ccc(OC)c(OC)c2)c1` (centres undefined) here?
Answer: The Potency was inconclusive [phenotype inactive, partial curve].

Question: Which Potency does the source give for `N#Cc1ccccc1Cn1c(=O)n(Cc2ccc(C(=O)NC3CCN(Cc4ccccc4)CC3)cc2)c(=O)c2ccccc21` here?
Answer: The Potency was inconclusive [phenotype inactive, full curve, poor fit].

Question: With `CSc1ccc(CCNC(=O)CCc2c(C)nc3cc(-c4ccccc4)nn3c2C)cc1` as the compound, how does the Potency read?
Answer: Its Potency is “inactive”.

Question: For `Cc1ccc(Cn2c(C(=O)O)c(CNCc3cccs3)c3ccc(C)cc32)cc1`, which Potency is on record?
Answer: Its Potency is inconclusive [phenotype inactive, single point].

Question: With `Cc1cccc(N2CCN(C(=O)Cn3cnc4sc(C)c(S(=O)(=O)N5CCN(c6ncccn6)CC5)c4c3=O)CC2C)c1` (centres undefined) as the compound, how does the Potency read?
Answer: The Potency was inconclusive [phenotype inactive, single point].

Question: With `FC(F)(F)c1cccc(-c2nnn3c2nc(NC2CCCCC2)c2ccccc23)c1` as the compound, how does the Potency read?
Answer: Its Potency is inconclusive [phenotype inactive, partial curve].

Question: With `CCN(c1ccc(OC)cc1)S(=O)(=O)c1nnc(NC(=O)c2ccccc2C)s1` as the compound, how does the Potency read?
Answer: The Potency was inconclusive [phenotype inactive, single point].

Question: Which Potency does the source give for `COC(=O)c1ccc2c(=O)n(CCCCCC(=O)N3CCN(c4cc(Cl)ccc4C)CC3)c(=O)[nH]c2c1` here?
Answer: The Potency was inconclusive [phenotype inactive, partial curve].

Question: Which Potency does the source give for `COc1ccc2cc(C(=O)NCc3ccc4c(c3)CCN4C(=O)c3ccc(C)cc3)[nH]c2c1` here?
Answer: The Potency was “inactive”.

Question: Which Potency does the source give for `O=C(NCc1ccc(Cl)cc1)c1ccc2c(c1)NC(=O)C(CS(=O)(=O)Cc1ccccc1Cl)N2` (centres undefined) here?
Answer: Its Potency is inconclusive [phenotype inactive, partial curve].

Question: Which Potency does the source give for `CCC1CCCCN1C(=O)Cn1c(=O)n(CCCCCC(=O)NCc2ccc(F)cc2)c(=O)c2sccc21` (centres undefined) here?
Answer: Its Potency is “inactive”.

Question: For `COc1ccc(-c2cc(C(F)(F)F)n3nc(C(=O)Nc4cccc(C(F)(F)F)c4)c(Br)c3n2)cc1`, which Potency is on record?
Answer: The Potency was “inactive”.

Question: Which Potency does the source give for `Cc1cccc(OCC(=O)N(Cc2ccc(N(C)C)cc2)Cc2ccco2)c1C` here?
Answer: The Potency was inconclusive [phenotype inactive, single point].

Question: For `COc1ccc(Nc2c3c(nc4ccc(NC(=O)c5cc(Cl)ccc5OC)cc24)CCCC3)cc1OC`, which Potency is on record?
Answer: Its Potency is active: 4.74 µM.

Question: For `COc1ccc2c(c1)CC(C(=O)Nc1ccc(OC)cc1OC)CO2` (centres undefined), which Potency is on record?
Answer: The Potency was “inactive”.

Question: Which Potency does the source give for `CCC1CCc2c(sc(NC(=O)C3c4ccccc4Oc4ccccc43)c2C(=O)OC)C1` (centres undefined) here?
Answer: Its Potency is inconclusive [phenotype inactive, single point].

Question: For `Cc1ccc(NC(=O)c2ccc(N(Cc3ccccc3)S(C)(=O)=O)cc2)cc1`, which Potency is on record?
Answer: The Potency was inconclusive [phenotype inactive, single point].

Question: Which Potency does the source give for `CCOC(=O)c1ccc(N2C(=O)c3n[nH]c(-c4cccs4)c3C2c2ccc(OC)cc2OC)cc1` (centres undefined) here?
Answer: The Potency was inconclusive [phenotype inactive, single point].

Question: Which Potency does the source give for `CCc1ccc(S(=O)(=O)c2nnn3c2nc(N2CCC(C(N)=O)CC2)c2cc(Cl)ccc23)cc1` here?
Answer: The Potency was inconclusive [phenotype inactive, single point].

Question: With `Cc1ccc(Cl)cc1N1CCN(C(=O)CCc2nnc3n(C)c(=O)c4ccccc4n23)CC1` as the compound, how does the Potency read?
Answer: Its Potency is inconclusive [phenotype inactive, single point].

Question: With `CCN(CC)S(=O)(=O)c1nnc(NC(=O)c2ccc(C)cc2)s1` as the compound, how does the Potency read?
Answer: Its Potency is inconclusive [phenotype inactive, single point].

Question: For `Cc1ccc(-n2nc(C)c3c(C)c(CCC(=O)NCc4ccc(Cl)cc4)c(C)nc32)cc1`, which Potency is on record?
Answer: The Potency was inconclusive [phenotype inactive, single point].

Question: With `COc1ccc(Nc2nnc(-n3nc(C)cc3C)c3ccccc23)cc1` as the compound, how does the Potency read?
Answer: Its Potency is inconclusive [phenotype inactive, partial curve, poor fit].

Question: For `CCn1cc(/C=C(\NC(=O)c2ccccc2Cl)C(=O)NCCCn2ccnc2)c2ccccc21`, which Potency is on record?
Answer: Its Potency is inconclusive [phenotype inactive, single point].

Question: For `Cc1ccccc1OCC(=O)Nc1ccccc1C(=O)OCc1cc(=O)n2nc(C3CC3)sc2n1`, which Potency is on record?
Answer: The Potency was active: 2.53 µM.

Question: With `Cc1cc(NC(=O)c2cc(-c3ccc(F)cc3)on2)nn1Cc1ccc(Cl)cc1` as the compound, how does the Potency read?
Answer: The Potency was inconclusive [phenotype inactive, single point].

Question: For `COc1ccc(-c2nn(-c3ccccc3)cc2C2NC(=O)NC(C)=C2C(=O)OC(C)C)cc1Cl` (centres undefined), which Potency is on record?
Answer: The Potency was inconclusive [phenotype inactive, single point].

Question: Which Potency does the source give for `CCN(CC)c1ccc(C(=O)NCc2ccc3c(c2)CCN3C(=O)c2ccc(F)cc2)cc1` here?
Answer: Its Potency is active: 7.27 µM.

Question: With `COc1ccccc1-c1cc(C(=O)Nc2cc(OC)c(OC)c(OC)c2)no1` as the compound, how does the Potency read?
Answer: Its Potency is active: 3.77 µM.

Question: With `CCCCNC(=O)c1cc(-c2ccc(OC)cc2)nc2n[nH]c(-c3cccc([N+](=O)[O-])c3)c12` as the compound, how does the Potency read?
Answer: The Potency was inconclusive [phenotype inactive, partial curve].

Question: With `Cc1cc(NC(=O)c2ccc3c(c2)OCCO3)cc(-c2nc3ccccc3o2)c1O` as the compound, how does the Potency read?
Answer: The Potency was inconclusive [phenotype inactive, single point].

Question: Which Potency does the source give for `Cc1ccc(C)c(NC(=O)Cn2cc(C(=O)c3cccs3)c3ccccc32)c1` here?
Answer: The Potency was inconclusive [phenotype inactive, full curve, poor fit].

Question: For `CCc1nnc2c(Nc3ccc(N(CC)CC)cc3C)nc3ccccc3n12`, which Potency is on record?
Answer: Its Potency is “inactive”.

Question: Which Potency does the source give for `CC(C)Cc1nn2c(=O)cc(COC(=O)c3ccccc3NC(=O)C3CCCCC3)nc2s1` here?
Answer: Its Potency is inconclusive [phenotype inactive, single point].

Question: Which Potency does the source give for `COc1ccc(C(=O)Nc2ccc(S(=O)(=O)N(Cc3ccccc3)c3ccccc3)cc2)cc1` here?
Answer: Its Potency is “inactive”.

Question: With `Cc1cc(OCC(O)CN2CCN(c3cccc(Cl)c3)CC2)ccc1Cl` (centres undefined) as the compound, how does the Potency read?
Answer: Its Potency is inconclusive [phenotype inactive, single point].

Question: Which Potency does the source give for `COc1ccc(-c2ccc(CCC(=O)O)n2-c2ccccc2O)cc1` here?
Answer: The Potency was “inactive”.

Question: With `COc1ccc(S(=O)(=O)Nc2cc3c(C(=O)OC(C)C)c(C)oc3c3ccccc23)cc1` as the compound, how does the Potency read?
Answer: The Potency was active: 11.3 µM.

Question: With `CC(CCc1ccccc1)NC(=O)CSc1n[nH]c(-c2ccc(F)cc2)n1` (centres undefined) as the compound, how does the Potency read?
Answer: Its Potency is “inactive”.

Question: Which Potency does the source give for `Cc1ccc(S(=O)(=O)N(C)Cc2nc(-c3ccccc3)oc2C)cc1` here?
Answer: Its Potency is inconclusive [phenotype inactive, single point].
